# Experimental data: PubChem BioAssay AID2546 (National Center for Advancing Translational Sciences (NCATS), 2010)
# Hit rate of the full screen: of about 310,000 compounds, about 11,000 (3.5%) were called active. Inconclusive results, whose numbers are uncertain, are shown with a selection of clear calls. The call rests on the fitted dose curve; in most records, active means well fitted inhibition curve with a large enough effect; inconclusive means small, poorly fitted or top-dose-only effect, or effect the other way; inactive means flat fitted curve, though single readings scatter. Potencies of inconclusive entries are left out as doubtful fits.
# Test: VP16 counterscreen qHTS for inhibitors of ROR gamma transcriptional activity;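 further: Gal4-VP16 expression switched on by copper sulfate through the metallothionein promoter; nearly all actives have a fitted effect of over 50% in size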
# Details: Drosophila S2 Gal4-VP16 UAS-luciferase, luminescence, 20 h; series mostly up to 53.6 µM
# Potency means the concentration at half of the fitted maximal effect; tags describe the fitted curve by direction and shape.
row,SMILES,Potency
1,COc1ccccc1CN1CCC2(CC1)CCN(C(=O)c1cc(C(F)(F)F)cc(C(F)(F)F)c1)CC2,inactive
2,CCCCC(=O)Nc1ccc(C(=O)Nc2ccc(OC)cc2[N+](=O)[O-])cc1,"inconclusive [inhibitor, single point]"
3,COc1ccc(-c2csc(NC(=O)c3ccc(S(=O)(=O)N4CCc5ccccc5C4)cc3)n2)cc1,inactive
4,COc1ccc(C(=O)NCCSC2CCCCC2)cc1,"inconclusive [activator, full curve, poor fit]"
5,CCn1c(SCC(=O)Nc2cc(C(C)(C)C)nn2-c2ccccc2)nnc1-c1cccs1,"inconclusive [activator, single point]"
6,CCCn1c(C(C)Nc2nc(-c3ccc(OC)cc3)cs2)nc2ccccc21 (centres undefined),"inconclusive [inhibitor, single point]"
7,COc1ccc(-c2cn(Cc3ccc(C(=O)c4ccccc4)cc3)nn2)cc1,"inconclusive [inhibitor, single point]"
8,Cc1ccc(/C=C/C(=O)c2c(C)cc(C)[nH]c2=O)cc1,"inconclusive [inhibitor, single point]"
9,Cc1ccc(NC(=O)CC(C(=O)O)c2ccccc2)cc1 (centres undefined),inactive
10,Cc1cccc(NC(=O)c2cccc(C(F)(F)F)c2)c1,"inconclusive [activator, single point]"
11,CNc1nc(-c2ccoc2)nc2ccccc12,inactive
12,NS(=O)(=O)c1ccc(CCNCc2cc(Br)ccc2OCc2ccccc2)cc1,active: 15.8 µM
13,COc1ccc(C(=O)CC(=O)C(=O)Nc2ccc(Cl)cc2)cc1,active: 12.6 µM
14,CCCC(NCC(O)COc1ccc(-c2ccccc2)cc1)c1ccccc1 (centres undefined),"inconclusive [inhibitor, single point]"
15,Cc1ccc(C)c(NC(=S)NNC(=O)c2csc(C)c2C)c1,"inconclusive [inhibitor, partial curve]"
16,Cc1ccc2occ(/C=N/NC(=O)c3ccncc3)c(=O)c2c1,inactive
17,NC(=O)c1ncn([C@@H]2O[C@H](CO)[C@@H](O)[C@H]2O)c1N,inactive
18,Cc1cccc(NC(=O)NCc2ccc3c(c2)OCO3)c1,"inconclusive [activator, full curve]"
19,N#CCCn1cc(C(CC(=O)c2ccccc2)C(=O)O)c2ccccc21 (centres undefined),"inconclusive [inhibitor, single point]"
20,Cc1ccc(O)c(NC(=S)NC(=O)CC(C)C)c1,"inconclusive [inhibitor, single point]"
21,CCCCC(=O)OCC(=O)c1ccc(OCC)cc1,"inconclusive [inhibitor, single point]"
22,COc1ccccc1NC(=O)CCSCCC(=O)Nc1ccccc1OC,inactive
23,CCc1c(C)nc2ncnn2c1N1CCCC(C(=O)NCc2ccc3c(c2)OCO3)C1 (centres undefined),"inconclusive [inhibitor, single point]"
24,CCc1ccccc1NC(=S)N(Cc1ccc(OC)cc1)CC1CCC(C(=O)O)CC1 (centres undefined),inactive
25,COc1ccc(C(=O)Nc2ccc3[nH]ncc3c2)cc1,"inconclusive [inhibitor, single point]"

row,SMILES,Potency
1,O=C(/C=C/c1ccccc1Cl)Nc1cccc(O)c1,active: 2.51 µM
2,O=C(COC(=O)/C=C/c1ccc(C(F)(F)F)cc1)NC1CCCC1,"inconclusive [inhibitor, single point]"
3,COCCN(CCOC)S(=O)(=O)c1ccc(OC)cc1,inactive
4,CNc1nc(Nc2ccc(C)c(Cl)c2)nc(N)c1[N+](=O)[O-],"inconclusive [activator, full curve, poor fit]"
5,Cc1onc(-c2c(F)cccc2Cl)c1C(=O)NCc1ccccc1,inactive
6,O=C(CN1C(=O)NC2(CCCCCC2)C1=O)c1ccccc1,inactive
7,C/C(N)=C(/C#N)C(=O)CSc1nnnn1-c1ccc(C)cc1C,active: 12.6 µM
8,Cc1cc(O)c(Oc2cc(C)cc(O)c2O)c(O)c1,"inconclusive [inhibitor, single point]"
9,Cc1cnc(=O)[nH]c1SCc1ccc([N+](=O)[O-])cc1,inactive
10,Cc1nc([N+](=O)[O-])c(Br)n1CC(=O)c1ccccc1,"inconclusive [inhibitor, single point]"
11,Cc1ccc2nc(-c3ccc(SCC(=O)Nc4ccc5c(c4)OCCO5)nc3)[nH]c2c1,inactive
12,CCNC(=S)NNC(=O)c1cc(-c2cccc(OC)c2)nc2ccccc12,active: 12.6 µM
13,Fc1ccccc1COc1ccc(/C=N/NC(=S)NCc2ccccc2)cc1,active: 1 µM
14,Nc1nc(Cl)nc2c1ncn2C1OC(CO)C(O)C1F (centres undefined),"inconclusive [activator, single point]"
15,C/C(Cn1cnc([N+](=O)[O-])n1)=N\NC(=O)c1ccccc1O,"inconclusive [inhibitor, single point]"
16,Cc1cc(O)c(C(=O)/C=C/c2ccccc2)c(=O)o1,"inconclusive [inhibitor, single point]"
17,COc1ccc(C(=O)N2CCN(c3ccc([N+](=O)[O-])c(NCCc4ccc(OC)c(OC)c4)c3)CC2)cc1,active: 3.98 µM
18,C=CCN(CC=C)S(=O)(=O)c1ccc(C(=O)Nc2sc3c(c2C(N)=O)CCCCC3)cc1,"inconclusive [inhibitor, partial curve]"
19,Cc1ccccc1C(=O)N/N=C/c1ccccn1,"inconclusive [inhibitor, single point]"
20,O=C(NCc1cccnc1)C1CCN(c2ccc(S(=O)(=O)N3CCOCC3)cc2Cl)CC1,"inconclusive [inhibitor, single point]"
21,COc1cc(C2C=C(C34CC5CC(CC(C5)C3)C4)NC(=S)N2)cc(OC)c1OC (centres undefined),active: 0.794 µM
22,CC(C)Cc1ccc(C(=O)NCCOc2ccccc2)o1,"inconclusive [inhibitor, single point]"
23,CCN(CC)S(=O)(=O)c1cccc(-c2n[nH]c(=S)n2/N=C/c2ccc(Br)cc2)c1,"inconclusive [inhibitor, partial curve]"
24,CCOC(=O)N=Nc1c(O)n(CC)c2ccccc12,"inconclusive [activator, single point]"
25,COc1cc(CO)ccc1OCC(=O)N1CCc2ccccc21,"inconclusive [inhibitor, partial curve]"

row,SMILES,Potency
1,O=C(C1=C(O)C(=O)N(CC2CCCO2)C1c1ccccc1[N+](=O)[O-])c1ccco1 (centres undefined),inactive
2,Cc1ccc(C(=O)CC(=O)c2ccccc2)cc1,"inconclusive [inhibitor, single point]"
3,Cc1cc(/C=N/NC(N)=S)c(C)n1-c1ccc(Cl)cc1,active: 1.12 µM
4,COc1ccc(/C=C/C(=O)c2cccs2)cc1OC,"inconclusive [inhibitor, partial curve, poor fit]"
5,NNC(=O)CNc1cccc(Cl)c1,inactive
6,O=C(/C=C/c1ccc2c(c1)OCCO2)c1ccc(O)cc1,active: 4.47 µM
7,O=C(Nc1cccc2ccccc12)c1ccc(OC(=S)N2CCOCC2)cc1,"inconclusive [inhibitor, single point]"
8,CCOC(=O)N1CCN(CCC(=O)c2ccc(Br)cc2)CC1,"inconclusive [inhibitor, single point]"
9,CCOC(=O)N1CCN(C(=O)CCCCCn2c(=S)[nH]c3ccsc3c2=O)CC1,"inconclusive [inhibitor, single point]"
10,Cc1ccc(/C=N/NC(=O)c2nnn(-c3nonc3N)c2-c2ccc3c(c2)OCO3)s1,active: 7.94 µM
11,CC1=NN(c2ccccc2)C(=O)C1N=Nc1cccc(O)c1 (centres undefined),"inconclusive [inhibitor, partial curve]"
12,O=C(Nc1ccccc1Cl)NC1CCCCCCC1,"inconclusive [activator, full curve, poor fit]"
13,CCCCn1c(CCNC(=O)c2ccco2)nc2ccccc21,inactive
14,Cc1cccc(NC(=O)c2ccoc2C)n1,inactive
15,Cc1ccsc1/C=N/Nc1ncnc2nc[nH]c12,"inconclusive [inhibitor, partial curve, poor fit]"
16,COc1cccc(/C=N/NC(=S)NCc2ccco2)c1OC,"inconclusive [inhibitor, single point]"
17,O=S(=O)(NCC1CCN(c2ccc(S(=O)(=O)N3CCOCC3)cc2)CC1)c1ccc(F)cc1,"inconclusive [inhibitor, single point]"
18,Cc1cc(C(=O)CCl)c(C)n1CCc1ccc(Cl)cc1,"inconclusive [activator, single point]"
19,CCN(CC)c1ccc(/C=N/NC(=O)c2cnccn2)c(O)c1,active: 5.62 µM
20,CCc1ccc2c(c1)c1nc(C)sc1n2CC,active: 11.2 µM
21,CC(C)Cn1c([N+](=O)[O-])nc2c1c(=O)[nH]c(=O)n2C,"inconclusive [inhibitor, single point]"
22,CCN(Cc1ccccc1)S(=O)(=O)c1ccc(C(=O)N(CCCN(C)C)c2nc3cc4c(cc3s2)OCO4)cc1,"inconclusive [inhibitor, single point]"
23,Cc1ccc(-c2n[nH]c3c2CCC3)cc1,"inconclusive [inhibitor, single point]"
24,C/C(=N\NC(=O)c1ccc([N+](=O)[O-])c(C)c1)c1ccccc1Cl,"inconclusive [inhibitor, single point]"
